Experimental data taken from publication PMC12136788.
This is one part of the list.

T1: UNK ZnF1-6 (called full-length) (human, UniProt Q9C0B0 30-357)
T1 sequence: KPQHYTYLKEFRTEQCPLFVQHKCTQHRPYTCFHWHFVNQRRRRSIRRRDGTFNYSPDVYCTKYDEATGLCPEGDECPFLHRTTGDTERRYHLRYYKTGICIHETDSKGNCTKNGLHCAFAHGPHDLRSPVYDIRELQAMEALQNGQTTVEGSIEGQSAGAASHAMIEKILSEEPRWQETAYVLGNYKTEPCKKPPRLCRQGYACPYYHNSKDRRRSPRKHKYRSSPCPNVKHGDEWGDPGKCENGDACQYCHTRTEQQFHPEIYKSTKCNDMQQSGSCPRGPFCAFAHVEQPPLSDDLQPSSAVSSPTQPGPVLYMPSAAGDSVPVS

B1: chr6:57184343:57184440:+|3pUTR|ENSG00000112208|msi1_unk|total|mutant (ssRNA)
RNA: GGGAGUUCUACAGUCCGACGAUCUCUUCAGUUUUGUGAAUAACAAAACCCGCAAUAUUUUAAUUAUCUAUCCCGAGAUUUUUCCGAUUGAAUUCUUGUCUUGUACCCGGAUCCCGCAUAUUUCACUAUUCUGUGGAUGAAUACCAACAGAGGAUUGAGCAUCA
B2: chr10:103289619:103289731:+|3pUTR|ENSG00000148798|unk|FALSE|unique (ssRNA)
RNA: GGGAGUUCUACAGUCCGACGAUCAUGAGUGGAAAAAGCCAAGGUGUCAUUUAUGUGUCAGUUCAUUUGUGGUGAUAUAGAAUUAGCUUUUUCAUCCCCUUACCCUUAGAAUCCACGUAUUCCCCUUCCCACUAGCCUAGGUCACAACAGAGGAUUGAGCAUCA
B3: ENSG00000164951:stop:overlap|stop_codon|ENSG00000164951|stop_codon|NA|stop_codon (ssRNA)
RNA: GGGAGUUCUACAGUCCGACGAUCUUACAAUCAUUGUAGUUCAGUUCAAUUCUCAUGUUGUAGGGGCGUAUCAAAACCAAGAAUAGUGAGUGGCUCUUUCACUGGCAAUUCUCAAAUGAUAUACAUUUAAAGGGCAGAUUUUUUCAACAGAGGAUUGAGCAUCA
B4: ENSG00000198589:be:win_3151|CDS|ENSG00000198589|bound_else_gene|NA|bound_elsewhere_windowed (ssRNA)
RNA: GGGAGUUCUACAGUCCGACGAUCUCUUCUGACAUAAUAGAAGCUGUGGCUAUUUCCUCUAAUUCUUUUAUAACAACUGGCAAAGAUUCAAUGACUGUCAGUGAAGUAACUGCUUCUAUAAGUUCUCCUUCAGAAGAGGAUGCCCAACAGAGGAUUGAGCAUCA
B5: chr11:62752106:62752207:-|CDS|ENSG00000185670|msi1|FALSE|unique (ssRNA)
RNA: GGGAGUUCUACAGUCCGACGAUCGGCUCACAAUGAGGACCUGGCCAAACGCAGCAAACCAGAUCCAGAAGUGGGACCCCUUCUAGGGGUGCAGCCUCUCCCUGGCUCCCCAACAGCAGACAGACAGAGCAGCAGUGGUGGAGGCAACAGAGGAUUGAGCAUCA
B6: ENSG00000107863:be:win_4051|CDS|ENSG00000107863|bound_else_gene|NA|bound_elsewhere_windowed (ssRNA)
RNA: GGGAGUUCUACAGUCCGACGAUCGUGCAGGAGGAAAGCACAGUAGACUCCCAGCCAGUGCCAAACAUAGAUCAUUUACUCACCAACAUUGGAAGGACAGGAGUCUCCCCAGGAGAUGUAUCAGAUUCAGCUACUAGUGACUCACAACAGAGGAUUGAGCAUCA
B7: chr9:128729785:128731336:-|three_prime_utr|ENSG00000160445|control|control|control (ssRNA)
RNA: GGGAGUUCUACAGUCCGACGAUCCUCCCACGGAGUGAAGAGACAUGGGGGACUUUUGCACAACCGACGCUUUUCCUUAAUGUUAGUGAGAUAUAUAUAUAUUAUAUAUAUAUAUUUUUUUUUUGGUUAGGAAGUGUGAAGUUUCAACAGAGGAUUGAGCAUCA
B8: ENSG00000070961:be:win_1351|CDS|ENSG00000070961|bound_else_gene|NA|bound_elsewhere_windowed (ssRNA)
RNA: GGGAGUUCUACAGUCCGACGAUCAUGAAAGAUAAUAACUUAGUAAGGCAUCUGGAUGCUUGUGAAACCAUGGGAAAUGCUACAGCUAUUUGUUCAGAUAAAACAGGAACUUUGACAAUGAACAGAAUGACAGUCGUUCAAGCUCAACAGAGGAUUGAGCAUCA
B9: chr8:27733518:27733645:-|3pUTR|ENSG00000147419|unk|total|mutant (ssRNA)
RNA: GGGAGUUCUACAGUCCGACGAUCGACCUUUUGAUUUUGAAGCAGACUAAAAUCUGACCAGACCACAAUGAAAAGUAUAAAAUCCGAAACUUAAAUUCCAAGCUAAAUUUCAGCUUUGACCCACCUAACUCCAGUGAACCGGUGCAACAGAGGAUUGAGCAUCA
B10: chr4:87473334:87473774:-|three_prime_utr|ENSG00000152583|control|control|control (ssRNA)
RNA: GGGAGUUCUACAGUCCGACGAUCCUUUCCAGCAUCCUCCUCUGUUCUAACCACUUCAGAAAUAUAUGCAGCUGUGAUACUUGUAGAUUUAUAUUUAGCAAAAUGUUAGCAUGUAUGACAAGACAAUGAGAGUAAUUGCUUGACCAACAGAGGAUUGAGCAUCA
B11: chr1:35190724:35191005:-|CDS|ENSG00000116560|unk|FALSE|unique (ssRNA)
RNA: GGGAGUUCUACAGUCCGACGAUCGCCCUUUCUGUUCGUAAUCUUUCACCUUAUGUUUCCAAUGAACUGUUGGAAGAAGCCUUUAGCCAAUUUGGUCCUAUUGAAAGGGCUGUUGUAAUAGUGGAUGAUCGUGGAAGAUCUACACAACAGAGGAUUGAGCAUCA
B12: chr9:14618660:14618761:-|3pUTR|ENSG00000175893|msi1|total|mutant (ssRNA)
RNA: GGGAGUUCUACAGUCCGACGAUCUCCGCUUUCCACAGGGAUUUCUUGAAAUGCUUUUGUUAUUAAACUCAAAAGGCAGUGAUCCGGAUGAAAUAAUUGUACAUAAUUUAUUUCCGUACUGACAGUGUUACAGAUUCUAAUUUACAACAGAGGAUUGAGCAUCA
B13: chr5:40767470:40767586:-|CDS|ENSG00000132356|unk|total|mutant (ssRNA)
RNA: GGGAGUUCUACAGUCCGACGAUCUUUAAGAAGAUAUGUGAUGGGAUCUUCUAUACCCCUCAAUAUUUAAAUCCUUCUGUGAUCCGCCUUUUGAAACAUAUGCUGCAGGUGGAUCCCAUGAAGAGGGCCACAAUCAAAGAUAUCCAACAGAGGAUUGAGCAUCA
B14: chr1:20652278:20652361:-|3pUTR|ENSG00000244038|msi1_unk|FALSE|overlapping (ssRNA)
RNA: GGGAGUUCUACAGUCCGACGAUCGACUGAGGGGCUAGAGCCCUCUCCGCACAGCGUGGAGACGGGGCAAGGAGGGGGGUUAUUAGGAUUGGUGGUUUUGUUUUGCUUUGUUUAAAGCCGUGGGAAAAUGGCACAACUUUACCUCAACAGAGGAUUGAGCAUCA

molecular target: T1, UNK ZnF1-6 (called full-length); test: nsRBNS (natural sequence RNA bind-n-seq); RBNS binding buffer (assumed for nsRBNS): 25 mM Tris pH 7.5, 150 mM KCl, 3 mM MgCl2, 0.01% Triton X-100, 500 ug/ml BSA, 20 U/ml SUPERase-In, 4 C; UNK is unkempt and MSI1 is Musashi-1; names of the RNAs are library labels; protein concentration not given here; high values mean tight binding

Compared with B1, B2 is higher in binding signal: 1.02 enrichment R for the first, 2.25 enrichment R for the second.

Going from B3 to B4, the binding signal falls from 0.912 enrichment R to 0.455 enrichment R.

Going from B5 to B6, the binding signal rises from 0.9 enrichment R to 1.88 enrichment R.

First: B7
Second: B8
The binding signal of the first is higher: 3.8 enrichment R for the first, 0.323 enrichment R for the second.

First: B9
Second: B10
The binding signal of the first is lower: 0.385 enrichment R for the first, 2.1 enrichment R for the second.

Going from B11 to B12, the binding signal rises from 0.393 enrichment R to 0.481 enrichment R.

Compared with B13, B14 is higher in binding signal: 0.488 enrichment R for the first, 1.06 enrichment R for the second.
